Test results as given in the supplement of paper PMC9433436.
± gives the standard deviation of the averaged measurements. Over roughly 4,100 sequences, “relative kcat/Km (krel) vs genomic leader AAAGAU” has its median near 1.7; the highest 2% begin near 6.5. This is a selection; strong and weak results do not stand in their true shares.

Biological target: T1, E. coli RNase P holoenzyme (M1 P RNA + rnpA protein) (UniProt P0A7Y8)
T1 sequence: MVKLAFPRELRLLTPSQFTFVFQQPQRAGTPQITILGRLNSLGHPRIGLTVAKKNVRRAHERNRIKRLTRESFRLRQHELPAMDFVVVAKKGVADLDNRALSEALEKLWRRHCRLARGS
Test: relative kcat/Km (krel) vs genomic leader AAAGAU (relative (reference leader = 1)); higher = faster RNase P cleavage
Description: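 HTS-Kin: a pool of ptRNA-Met (21C construct) with all 4096 combinations of 5' leader nucleotides N(-6) to N(-1) was processed in vitro by E. coli RNase P (P RNA + rnpA/C5 protein) under multiple-turnover conditions at 37 C, pH 8, 17.5 mM MgCl2. Residual substrate was Illumina-sequenced at several fractions reacted, and relative kcat/Km (krel) was computed by internal competition kinetics, calibrated to the genomic leader (AAAGAU = 1). The listed hexamer is the varied N(-6)..N(-1) leader (DNA letters), and it sits between a fixed 5' stem-loop flank (GCAUGCACGAAAGUGCGUGCUAUGAA) and the mature tRNA-Met starting GGCUACGUAGCUCAGUUGG. Two technical replicates are averaged.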

[1] = fraction of substrate reacted: ~9-10% (9.79% repeat 1, 9.1% repeat 2)
[2] = fraction of substrate reacted: ~13-16% (15.68% repeat 1, 13.17% repeat 2)
[3] = fraction of substrate reacted: ~26-29% (28.66% repeat 1, 26.4% repeat 2)

Row | Sequence | relative kcat/Km [1] | relative kcat/Km [2] | relative kcat/Km [3]
1 | ACTAAC | 1.48 ± 0.31 | 1.42 ± 0.44 | 2.32 ± 0.65
2 | CAAACG |  | 0.172 ± 0.13 | 0.797 ± 0.69
3 | AGCTAC | 1.27 ± 0.29 | 3.3102 ± 0.0027 | 4.78 ± 1.9
4 | GTAGAA | 2.15 ± 0.51 | 1.7 ± 0.13 | 3.06 ± 0.87
5 | ATGTGC | 0.846 ± 0.63 | 1.12 ± 0.55 | 1.28 ± 0.43
6 | TCCCTT | 3.55 ± 1.3 | 4.28 ± 1 | 5.52 ± 2
7 | CATATC | 1.64 ± 0.55 | 1.99 ± 0.036 | 2.93 ± 1.2
8 | ATAGGT |  |  | 2.15 ± 1.4
9 | GAACTC | 1.6 ± 0.92 | 1.71 ± 1.1 | 1.8 ± 0.52
10 | ATTTTT | 2.48 ± 0.92 | 2.63 ± 0.22 | 3.89 ± 1.3
11 | ACTATG | 0.987 ± 0.91 | 1.28 ± 0.66 | 2.54 ± 0.28
12 | GGGACT | 1.47 ± 0.38 | 0.923 ± 0.07 | 1.16 ± 0.37
13 | AACTAA | 2.93 ± 0.16 | 4.29 ± 1.7 | 6.5 ± 3.1
14 | TGACCA |  | 0.615 ± 0.6 | 1.45 ± 0.74
15 | CCCATC | 3.16 ± 2 | 3.86 ± 0.75 | 4.47 ± 1.3
16 | CACCCG | 1.31 ± 0.78 | 0.433 ± 0.24 | 1.45 ± 0.21
17 | GTTGCA | 1.92 ± 0.31 | 1.71 ± 0.42 | 2.28 ± 1.1
18 | TAAGGC | 1.46 ± 0.72 |  | 2.44 ± 2.2
19 | GATCTA | 2.53 ± 1.2 | 1.99 ± 0.21 | 2.36 ± 0.86
20 | GAGTTA | 2.04 ± 0.57 | 1.64 ± 0.47 | 2.58 ± 0.83
21 | ACGATT | 2.33 ± 0.98 | 1.48 ± 0.32 | 2.03 ± 0.045
22 | AGGAAC | 1.82 ± 0.51 | 1.95 ± 0.31 | 1.84 ± 0.94
23 | TGCAGT |  | 2.03 ± 1.7 | 2.08 ± 2
24 | ACTCCG | 0.619 ± 0.38 | 0.119 ± 0.0044 | 0.829 ± 0.12
25 | GAGACC | 1.6 ± 1 | 0.952 ± 0.75 | 1.4 ± 0.17
26 | GGAGTA |  |  | 0.53 ± 0.14

Row | Sequence | relative kcat/Km [1] | relative kcat/Km [2] | relative kcat/Km [3]
27 | ATCCCT | 2.7 ± 0.55 | 3.48 ± 0.4 | 4.42 ± 1.8
28 | ACGGAC | 0.549 ± 0.26 | 1.07 ± 0.098 | 1.06 ± 0.54
29 | TCTGGT |  |  | 1.45 ± 0.27
30 | TTCCTC | 4.47 ± 1.9 | 5.25 ± 0.81 | 6.88 ± 2.5
31 | CTCCGA | 4.78 ± 2 | 5.35 ± 1.6 | 8.07 ± 3.3
32 | TCTGCC | 2.33 ± 0.57 | 1.8 ± 0.49 | 2.57 ± 0.081
33 | CGTTGC | 3.92 ± 1.2 | 3.77 ± 0.65 | 5.14 ± 1.6
34 | TCTAGG | 1.37 ± 1.2 | 0.66 ± 0.37 | 1.66 ± 0.39
35 | TCGCTT | 1.69 ± 0.27 | 2 ± 0.15 | 2.43 ± 0.46
36 | GCCTAT | 2.77 ± 0.47 | 3.91 ± 0.98 | 6.22 ± 2.8
37 | CGTTGT | 0.465 ± 0.32 |  | 1.21 ± 0.9
38 | TCAATT | 2.1 ± 1.1 | 1.92 ± 0.12 | 2.3 ± 0.3
39 | CTATTC | 2.19 ± 0.38 | 2.08 ± 0.56 | 2.98 ± 0.77
40 | ATAAAC | 1.98 ± 1.2 | 2.37 ± 0.16 | 2.94 ± 1
41 | ATTAGA | 3.28 ± 1.3 | 3.38 ± 0.27 | 4.95 ± 2
42 | TATTTA | 2.61 ± 1.7 | 2.93 ± 0.48 | 4.12 ± 1.6
43 | TCCTTA | 3.84 ± 1.5 | 4.61 ± 0.54 | 6.32 ± 2.4
44 | GGGCTA | 0.822 ± 0.23 | 1.01 ± 0.35 | 1.09 ± 0.14
45 | CATAAT | 3.02 ± 1.2 | 3.28 ± 0.4 | 5.16 ± 2.4
46 | ATTTTC | 2.84 ± 1.7 | 2.54 ± 0.1 | 2.94 ± 0.38
47 | TGGACC | 0.825 ± 0.51 | 0.618 ± 0.3 | 0.551 ± 0.0088
48 | TTACAT | 3.53 ± 1.5 | 4.6 ± 0.74 | 6.4 ± 2.5
49 | AGGGCT |  |  | 0.459 ± 0.027
50 | GACACA | 2.62 ± 0.8 | 3.86 ± 1.4 | 5.32 ± 2.2
51 | CTGGGA | 0.548 ± 0.39 |  | 
52 | TAACCT | 1.14 ± 0.046 | 1.39 ± 0.36 | 2.19 ± 1.5

Row | Sequence | relative kcat/Km [1] | relative kcat/Km [2] | relative kcat/Km [3]
53 | TAGAGA | 3.11 ± 1.1 | 2.86 ± 0.48 | 4.09 ± 1.6
54 | GTAGCA | 1.64 ± 0.038 | 1.51 ± 0.38 | 1.94 ± 0.57
55 | CCGATA | 1.28 ± 0.26 |  | 1.35 ± 0.2
56 | CGCCGT | 0.516 ± 0.5 |  | 1.06 ± 0.75
57 | ACCAGT |  |  | 0.68 ± 0.25
58 | TATTTG |  | 0.733 ± 0.45 | 1.86 ± 0.14
59 | AACCCT |  | 1.61 ± 0.32 | 2.01 ± 0.28
60 | AGAAAT | 2.45 ± 1.1 | 2.91 ± 0.24 | 3.16 ± 0.78
61 | AAGTTC | 2.18 ± 0.84 | 2.2 ± 0.33 | 1.98 ± 0.045
62 | AATCGC | 2.71 ± 0.87 | 2.58 ± 0.92 | 3.68 ± 1.6
63 | TCATCA | 2.45 ± 1.2 | 2.5 ± 0.069 | 3.35 ± 1.1
64 | ATTATA | 2.41 ± 1.2 | 1.76 ± 0.6 | 2.97 ± 1.1
65 | TCTTAT | 4.12 ± 1.9 | 5.44 ± 1.1 | 
66 | AAAGAG |  |  | 1 ± 0.17
67 | CGAAGG | 0.982 ± 0.12 |  | 0.718 ± 0.53
68 | GCCTAC | 3.67 ± 1.2 | 4.5 ± 0.39 | 6.1 ± 2.4
69 | CCGAAT | 2.07 ± 0.072 | 2.93 ± 1.4 | 3.35 ± 1.6
70 | CTTACG |  | 0.767 ± 0.29 | 1.67 ± 0.14
71 | TGCTTG |  |  | 0.812 ± 0.49
72 | TCGAAG | 2.36 ± 1.7 | 1.69 ± 1.2 | 2.82 ± 0.37
73 | AGTATC | 2.72 ± 1.1 | 3.59 ± 0.089 | 4.17 ± 1.4
74 | TGTTCA | 1.48 ± 0.037 | 2.63 ± 0.08 | 4.05 ± 1.9
75 | GCACAG |  |  | 0.529 ± 0.39
76 | CGCCAT | 3 ± 0.35 | 4.6 ± 1.3 | 6.07 ± 2.5
77 | ATAAAG | 0.655 ± 0.012 | 0.5 ± 0.38 | 1.63 ± 0.27
78 | GTCCCA | 1.79 ± 0.89 | 3.04 ± 0.53 | 4.38 ± 1.3

Row | Sequence | relative kcat/Km [1] | relative kcat/Km [2] | relative kcat/Km [3]
79 | GTACAT | 2.39 ± 1.4 | 3.45 ± 0.14 | 5.17 ± 2.2
80 | AAATTC | 2.35 ± 1.4 | 1.98 ± 0.19 | 2.34 ± 0.6
81 | CAACAC | 2.07 ± 0.14 | 2.58 ± 1.3 | 3.75 ± 1.6
82 | ATGCGG |  |  | 0.622 ± 0.45
83 | GGCGGG |  |  | 0.878 ± 0.74
84 | CAAACA |  | 1.01 ± 0.4 | 1.22 ± 0.063
85 | CTGTAG |  | 0.916 ± 0.87 | 2.7 ± 0.46
86 | GTGGAC | 0.808 ± 0.45 |  | 1.4 ± 0.63
87 | AGGATA | 1.66 ± 1.1 | 1.32 ± 0.19 | 1.52 ± 0.7
88 | CGTTCT | 2.36 ± 0.18 | 3.46 ± 1.4 | 5.35 ± 2.5
89 | CTTCGA | 2.43 ± 0.59 | 2.97 ± 1.5 | 4.7 ± 2.1
90 | AGTCCA | 2.43 ± 0.88 | 2.15 ± 0.14 | 2.64 ± 0.88
91 | CAAAAG | 1.16 ± 1.2 |  | 1.32 ± 0.36
92 | GGCCCT | 1.81 ± 0.9 | 1.3 ± 0.24 | 1.98 ± 0.1
93 | GGAAAT | 1.8 ± 0.19 | 2.13 ± 0.18 | 2.93 ± 1.1
94 | ACACTG |  |  | 0.832 ± 0.076
95 | GTCGAC | 3.76 ± 0.29 | 5.92 ± 1.9 | 9.01 ± 3.7
96 | TGAGCG | 1.21 ± 0.89 |  | 0.73 ± 0.43
97 | ACGTGA | 1.25 ± 0.65 | 1.62 ± 0.83 | 2.21 ± 0.8
98 | TGTGCG | 0.34 ± 0.32 |  | 
99 | GGTTCT | 1.27 ± 0.65 | 1.42 ± 0.36 | 1.96 ± 0.38
100 | TTTCAG | 2.51 ± 2.3 | 1.83 ± 0.22 | 3.23 ± 0.79
101 | AATGTT | 0.792 ± 0.16 | 0.821 ± 0.55 | 1.29 ± 0.62
102 | GATGCC |  | 1.03 ± 0.77 | 1.29 ± 0.51
103 | GTCAGC | 4.18 ± 1.7 | 5.29 ± 0.92 | 7.22 ± 2.9
104 | CTTCGC | 3.26 ± 0.32 | 3.44 ± 1.1 | 4.78 ± 1.5
